Experimental data: PubChem BioAssay AID686978 (National Center for Advancing Translational Sciences (NCATS), 2013)
Out of some 420,000 compounds screened, about 64,000 (15%) were called active. Inconclusive results, whose numbers are uncertain, are shown with a selection of clear calls. The call rests on the fitted dose curve; in most records, active means well fitted inhibition curve with a large enough effect; inconclusive means small, poorly fitted or top-dose-only effect; inactive means flat fitted curve, though single readings scatter. Potencies of inconclusive entries are left out as doubtful fits.

Experiment: qHTS for Inhibitors of human tyrosyl-DNA phosphodiesterase 1 (TDP1): qHTS in cells in absence of CPT; further: nearly all actives have a fitted effect of over 55% in size
Details: DT40 Tdp1-/- hTDP1 cells, no CPT, ATP luminescence, 48 h; activity change, negative = growth inhibition: at 46.2 µM (top of the series) unless noted
Summary of the method: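 A cellular qHTS used chicken DT40 cells lacking endogenous Tdp1 but carrying stably transfected human TDP1. Compounds were applied without camptothecin, and cell growth kinetics were judged by ATP-dependent luminescence after ≥48 hr.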
On the % scale 0 is the no-effect control and ±100 the full control effect; potency means the concentration at half of the fitted maximal effect; tags describe the fitted curve by direction and shape.

Structure (SMILES) | activity change, negative = growth inhibition | Potency
Cc1cc(C)cc(NC(N)=S)c1 | inactive: -13.3% | 
O=C(CSc1nc(-c2ccccc2Cl)ns1)c1ccc(Cl)cc1 |  | inconclusive [inhibitor, single point]
CCOC(=O)c1ccc(CN(Cc2ccc(Br)cc2)S(=O)(=O)c2cccc(C(F)(F)F)c2)cc1 |  | inconclusive [inhibitor, partial curve]
CC(C)Cn1c(CN(C)Cc2ccccc2)nc2c1c(=O)n(C)c(=O)n2C |  | active: 7.31 µM
C[C@H]1CN=C(Nc2ccccc2)N1CCCC1CCCC1 |  | active: 16.4 µM
CC(C)c1nc2n[nH]c(N)c2c2c1CSC(C)(C)C2 |  | inconclusive [inhibitor, partial curve]
COc1ccc(Cl)cc1S(=O)(=O)N1CCN=C1C |  | inconclusive [inhibitor, full curve, poor fit]
O=C(NC1CCSC1=O)c1ccc(Oc2ccc(F)cc2)nc1 (stereo unspecified) | inconclusive: -33.5% [inhibitor] | 
COc1ccc2c(c1)c(=O)c(C(=O)c1ccc(C)cc1)cn2Cc1ccccc1F |  | inconclusive [inhibitor, single point]
CC(=O)Nc1ccc2[nH]c3ccccc3c2c1 | inactive: 0.601% | 
CCC(C(=O)OC)n1nnc2sc(-c3ccccc3)cc2c1=O (stereo unspecified) |  | active: 14.6 µM
CCOc1ccc(S(=O)(=O)Nc2ccc(C(=O)N3CCC3)cc2)cc1 |  | inconclusive [inhibitor, single point]
O=C(NCCc1ccccc1)C1Cc2c(-c3ccccc3)ccnc2O1 (stereo unspecified) |  | inconclusive [inhibitor, single point]
NC(=NCc1ccco1)NC(=O)c1ccccc1 | inactive: -25.3% | 
c1ccc(-c2nnc(SCC3CCCCO3)nc2-c2ccccc2)cc1 (stereo unspecified) |  | inconclusive [inhibitor, single point]
O=C(/C=C/c1cccc([N+](=O)[O-])c1)NCCc1ccc(F)cc1 |  | inconclusive [inhibitor, single point]
CC(C)(C)OC(=O)N1C(=O)[C@](OC(=O)c2ccccc2)(c2ccc(F)cc2)c2ccccc21 |  | inconclusive [inhibitor, partial curve]
COc1cccc(OC)c1OCCNCC1CSc2ccccc2O1 (stereo unspecified) |  | active: 10.3 µM
O=C(Nc1ccc2oc(-c3ccccc3)nc2c1)C1CCCO1 (stereo unspecified) |  | inconclusive [inhibitor, single point]
CCOc1cc2[nH]c(=S)n(CCN3CCCCC3CC)c(=O)c2cc1OCC (stereo unspecified) |  | active: 16.4 µM
O=C(Nc1ccncc1)c1cc(-c2cccc(Br)c2)nc2ccccc12 |  | inconclusive [inhibitor, partial curve]
CC(C)C(NC(=O)c1ccc(C(C)(C)C)cc1)C(=O)Nc1ccc(N2CCOCC2)cc1 (stereo unspecified) |  | inconclusive [inhibitor, partial curve, poor fit]
O=C(NCC1CC1)c1onc(CSc2ccncc2)c1C(=O)NCC1CC1 |  | inconclusive [inhibitor, partial curve, poor fit]
CCC(C)c1c(NS(=O)(=O)c2ccc(C)cc2)o[nH]c1=O (stereo unspecified) | inactive: -16.4% | 

Structure (SMILES) | activity change, negative = growth inhibition | Potency
Cc1cc(C)c2c(=O)n3c(nc2c1)C(CC(C)C)NC(=O)c1cccnc1-3 (stereo unspecified) |  | active: 23.1 µM
CC1(C2CC2)NC(=O)N(CC(=O)N2CCN(c3ccccc3Cl)CC2)C1=O (stereo unspecified) |  | inconclusive [inhibitor, partial curve]
CCCCn1c(SCC(=O)Nc2cc(C)on2)nnc1-c1ccncc1 | inactive: -7.04% | 
Cc1ccc(N2C(=O)CS(=O)(=O)C23C(=O)N(Cc2ccccc2F)c2ccccc23)cc1Cl (stereo unspecified) |  | inconclusive [inhibitor, single point]
CCOC(=O)C1=C(CN2CCc3ccccc32)NC(=O)NC1c1cc(C)ccc1C (stereo unspecified) |  | active: 12.6 µM
CCOc1ccc(N(CC(=O)N2CCCC2)S(=O)(=O)c2ccc(Cl)cc2)cc1 |  | inconclusive [inhibitor, partial curve, poor fit]
CCOC(=O)N1CCN(CCC(=O)Nc2cccc(Cl)c2C)CC1 |  | inconclusive [inhibitor, full curve]
CCc1ccc(OCCCn2c(CCCNC(=O)C3CCCCC3)nc3ccccc32)cc1 |  | active: 4.47 µM
CC(C)NC(=O)C1C(c2ccccc2)=Nc2ccccc2N1C(=O)c1cc(Cl)cc(Cl)c1 (stereo unspecified) |  | inconclusive [inhibitor, single point]
COC(=O)C1CCCCN1Cc1ccc2c(c1)CN(C1CCSCC1)CCO2 (stereo unspecified) | inactive: -25.9% | 
Cc1nc2c3ccccc3nc(NNC(=O)CCC(=O)N3CCCC(C)C3)n2n1 (stereo unspecified) | inactive: -16.8% | 
O=C(/C=C/Sc1ncn[nH]1)c1ccc(Cl)cc1 |  | active: 2.59 µM
Cc1ccc(C)c(S(=O)(=O)Nc2cc3c4c(c2)CCC(=O)N4CCC3)c1 |  | inconclusive [inhibitor, single point]
COc1cccc(CNC(=O)COC(=O)c2nc(Cl)c(Cl)c(Cl)c2Cl)c1 |  | inconclusive [inhibitor, full curve, poor fit]
CCC1(c2ccc(F)cc2)NC(=O)N(CC(=O)N2CCc3ccccc32)C1=O (stereo unspecified) |  | inconclusive [inhibitor, single point]
CN(NC(=O)Nc1ccc(Cl)cc1)c1ncc(C(F)(F)F)cc1Cl |  | inconclusive [inhibitor, partial curve]
Cc1cccc(-c2nnc(SCCC(=O)N3CCOCC3)o2)c1 | inactive: 4.84% | 
COc1cc2ncnc(NCCCN3CCOCC3)c2cc1OC | inactive: 4.13% | 
CC(=O)c1ccc(S(=O)(=O)N2CCN(C(C)C(=O)N(C)Cc3ccccc3)CC2)cc1 (stereo unspecified) |  | inconclusive [inhibitor, partial curve, poor fit]
CN(c1ccccc1)C(CNS(=O)(=O)c1ccccc1)c1ccccc1 (stereo unspecified) |  | inconclusive [inhibitor, single point]
COC(=O)c1ccc(C2C(Oc3ccccc3C)C(=O)N2CCc2ccc(OC)c(OC)c2)cc1 (stereo unspecified) |  | active: 14.6 µM
COC(=O)c1sccc1S(=O)(=O)N(CC(=O)NCc1ccc(F)cc1)c1ccc(C)c(C)c1 | inactive: -7.11% | 
O=C1/C(=C\c2ccsc2)NC(=S)N1c1ccccc1 |  | inconclusive [inhibitor, single point]
CCCn1nc(C(=O)NCc2ccc3c(c2)OCO3)c2ccccc2c1=O |  | inconclusive [inhibitor, single point]

Structure (SMILES) | activity change, negative = growth inhibition | Potency
Cc1ccc(C2=NN(S(C)(=O)=O)C(c3cccs3)C2)cc1 (stereo unspecified) |  | inconclusive [inhibitor, partial curve]
COc1ccc(Cc2nnc(C(=O)NCCCN3CCN(c4ccccc4F)CC3)o2)cc1OC |  | inconclusive [inhibitor, single point]
CC(C)COc1ccc(Nc2ncnc3ccc(Br)cc23)cc1 |  | inconclusive [inhibitor, partial curve]
Cc1ccc(OCCNc2ccc(S(=O)(=O)N3CCCC3)cn2)cc1 |  | inconclusive [inhibitor, full curve, poor fit]
Cc1sc2c3ccsc3ccc2[n+]1C |  | active: 16.4 µM
CCOC(=O)Cc1cc(-c2ccc(OC)cc2)nc2ccc3ccccc3c12 |  | inconclusive [inhibitor, single point]
C/C(=N/NC(=O)c1cc(-c2ccc(Cl)s2)[nH]n1)c1ccco1 |  | inconclusive [inhibitor, partial curve, poor fit]
CC(NS(=O)(=O)c1ccc(OCC(=O)NCc2ccccn2)cc1)c1ccccc1 (stereo unspecified) | inactive: -8.92% | 
CC1CCC(C(=O)NNC(=O)c2cc(-c3ccco3)[nH]n2)CC1 (stereo unspecified) |  | active: 16.4 µM
C/C(=N\N1CCN(C)CC1)c1ccc(Cl)c(Cl)c1 |  | inconclusive [inhibitor, single point]
CCOC(=O)CSc1nc(C(C)(C)C)nc2ccccc12 |  | inconclusive [inhibitor, single point]
CCC(c1ccccc1)c1noc(CCN(CC)CC)n1 (stereo unspecified) |  | inconclusive [inhibitor, single point]
CCSC1=C(C#N)C(CC(C)C)C2=C(CCCC2=O)N1 (stereo unspecified) | inconclusive: -31.6% [inhibitor] | 
Cc1cc(C)cc(N2CCCn3c2nc2c3c(=O)n(CCN3CCOCC3)c(=O)n2C)c1 |  | inconclusive [inhibitor, single point]
CCOC(=O)N1CCN(c2nc(-c3ccc(Cl)cc3)cs2)CC1 |  | inconclusive [inhibitor, single point]
CCOC(=O)c1[nH]c2ccccc2c1NC(=O)c1ccccc1OC |  | active: 14.6 µM
COc1ccc(C=O)cc1CSc1ncccc1C(=O)O | inactive: -10.9% | 
Cc1ccc(-n2c(-c3ccc(Cl)cc3)c[n+]3c2CCC3)cc1 |  | active: 3.26 µM
Cc1ccccc1C(=O)Nc1cccc(C(=O)N/N=C/c2ccc3c(c2)OCO3)c1 |  | inconclusive [inhibitor, single point]
O=C(CCN1CCCCC1c1cccnc1)NCc1ccccc1 (stereo unspecified) |  | inconclusive [inhibitor, single point]
CC1CCc2cccc3c(O)cc(=O)n1c23 (stereo unspecified) |  | inconclusive [inhibitor, partial curve]
CN(C)c1ccc(-c2cc(N(C)Cc3ccco3)ncn2)cc1 |  | inconclusive [inhibitor, single point]
Cc1ccc(S(=O)(=O)N[C@H](C(=O)OCC(=O)NC(=O)C2CCCCC2)C(C)C)cc1 | inactive: -1.85% | 
